Patent US5071875A (Northwestern University, priority 1989, dated 1991)
At least one structure is not confirmed: it was looked up by name or label, or the drawing left a doubt. Some entries repeat one wording, which the source may state once for all of them.

Key:
melatonin receptor [1] = assay: Inhibition of 2-[125I]iodomelatonin binding to chicken retinal membranes; conditions: for IC50: read-out: IC50, inhibition of 2-[125I]iodomelatonin binding to chicken retinal membranes, 0° C., 5 hr, in the dark
Experimental: Dubocovich, et al., Proc. Nat'l.
The compounds to be tested were dissolved in 1 mM HCl with 0.1% bovine serum albumin. Binding was initiated by addition of 220-μl aliquots of retinal membranes resuspended in the Tris-HCl buffer to tubes containing 20 μl of test compound or vehicle, and radioligand. […] Reactions were terminated by addition of 5 ml of ice-cold Tris-HCl buffer, and the contents were immediately filtered through glass-fiber filters (Schleicher & Schuell no. 30) soaked in 0.5% (vol/vol) polyethylenimine solution. Each filter was washed twice with 5 ml of the cold buffer. Radioactivity was determined in a gamma counter.

melatonin receptor [2] = molecular target: T1, melatonin receptor (Oryctolagus cuniculus, UniProt G1SUP2); assay: Inhibition of calcium-dependent [3H]dopamine release from rabbit retina (melatonin agonist assay); format: cell-based
T1 construct: Typically, the rabbit retina tissues preincubation with [^3 H]-dopamine for 10 minutes; from tissue; host or cells: rabbit retina (superfused retinal tissue)
T1 sequence (G1SUP2 1-362): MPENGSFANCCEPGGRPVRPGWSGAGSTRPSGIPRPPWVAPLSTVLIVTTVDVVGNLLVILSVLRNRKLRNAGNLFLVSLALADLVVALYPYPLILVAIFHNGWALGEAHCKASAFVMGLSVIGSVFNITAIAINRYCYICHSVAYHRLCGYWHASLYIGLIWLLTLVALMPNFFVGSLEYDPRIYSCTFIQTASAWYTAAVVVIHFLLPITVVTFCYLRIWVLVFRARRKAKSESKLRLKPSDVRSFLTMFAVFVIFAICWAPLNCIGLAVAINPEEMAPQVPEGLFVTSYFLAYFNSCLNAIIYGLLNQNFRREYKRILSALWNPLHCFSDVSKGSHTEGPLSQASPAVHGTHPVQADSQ
Experimental: Accordingly, all experiments were run in the presence of S-sulpiride (0.1 μM) to block D-2 dopamine autoreceptors present in the dopamine amacrine cells of retina.
Thus, the lower the IC50, the greater the agonistic activity.
Assays were performed as described in Dubocovich, J. Pharm. […] Retinal tissues are incubated for 10 min at 37° C. in the presence of 0.1 μM [^3 H]dopamine. The tissue was then washed in Krebs' solution at 37° C. and transferred to individual cylindrical plastic tubes having a thin nylon mesh on the bottom. These plastic tubes were then transferred to individual glass superfusion chambers containing platinum electrodes 30 mm apart. The tissue samples are superfused with Krebs' solution, starting at time equal zero until a leveling off of the spontaneous release of radioactivity occurred (about 60 mins). A time equal 60 mins S1 is applied.
Tritium release, i.e., release of [^3 H]dopamine, was elicited by field stimulation at 3 Hz, 20 mA, 2 msec duration. Field stimulations were applied in each experiment at either 60 (S1) or 100 (S2), min after the end of the incubation with [^3 H]dopamine. […] At the end of each experiment, the retinal tissue contained in each chamber was solubilized and the tritium content remaining in the retinal tissue was determined by liquid scintillaton counting. […]

| SMILES | activity in competitively inhibiting the binding of 2-[125I]iodomelatonin to the melatonin binding site (in words) (melatonin receptor [1]) | IC50 (melatonin receptor [1]) [nM] | melatonin agonist activity (in words) (melatonin receptor [2]) |
| --- | --- | --- | --- |
| O=C(CCl)NC1Cc2ccccc2C(Cc2ccccc2)C1 (centres unmarked) [AH 029, 4-benzyl-2-chloroacetamido-tetralin] | high activity | 300 |  |
| COc1cccc2c1CC(NC(=O)Cc1ccccc1)CC2 (centres unmarked) [AH 016, 8-methoxy-2-phenylacetamido-tetralin] |  | > 100000 |  |
| O=C(Cc1ccccc1)NC1CCc2ccccc2C1 (centres unmarked) [AH 010, 2-phenylacetamido-tetralin] |  | > 100000 |  |
| COc1cccc2c1CC(NC(=O)CCl)CC2 (centres unmarked) [AH 017, 8-methoxy-2-chloroacetamidotetralin] | high activity | 682 | melatonin agonists |
| O=C(CCl)NC1Cc2ccccc2C(c2ccccc2)C1 (centres unmarked) [AH 026, 4-phenyl-2-chloroacetamido-tetralin] | high activity | 250 |  |
| O=C(CCl)NC1CCc2ccccc2C1 (centres unmarked) [AH 011, 2-chloroacetamido-tetralin] |  | 20000 | melatonin agonists |
